In article PMC11913770:
Results are given in words; binding and its absence hold for the method and conditions named. Binding seen in cells or lysates may run through a third protein. Some results given as binding are weak or reduced against the parent protein; the word gives no strength. Sequences can lack the tags named with a protein. One block for each molecule: values may come before it.

Sequences of proteins named here, by UniProt entry; tags and fusion partners are left off.
UniProt O81283: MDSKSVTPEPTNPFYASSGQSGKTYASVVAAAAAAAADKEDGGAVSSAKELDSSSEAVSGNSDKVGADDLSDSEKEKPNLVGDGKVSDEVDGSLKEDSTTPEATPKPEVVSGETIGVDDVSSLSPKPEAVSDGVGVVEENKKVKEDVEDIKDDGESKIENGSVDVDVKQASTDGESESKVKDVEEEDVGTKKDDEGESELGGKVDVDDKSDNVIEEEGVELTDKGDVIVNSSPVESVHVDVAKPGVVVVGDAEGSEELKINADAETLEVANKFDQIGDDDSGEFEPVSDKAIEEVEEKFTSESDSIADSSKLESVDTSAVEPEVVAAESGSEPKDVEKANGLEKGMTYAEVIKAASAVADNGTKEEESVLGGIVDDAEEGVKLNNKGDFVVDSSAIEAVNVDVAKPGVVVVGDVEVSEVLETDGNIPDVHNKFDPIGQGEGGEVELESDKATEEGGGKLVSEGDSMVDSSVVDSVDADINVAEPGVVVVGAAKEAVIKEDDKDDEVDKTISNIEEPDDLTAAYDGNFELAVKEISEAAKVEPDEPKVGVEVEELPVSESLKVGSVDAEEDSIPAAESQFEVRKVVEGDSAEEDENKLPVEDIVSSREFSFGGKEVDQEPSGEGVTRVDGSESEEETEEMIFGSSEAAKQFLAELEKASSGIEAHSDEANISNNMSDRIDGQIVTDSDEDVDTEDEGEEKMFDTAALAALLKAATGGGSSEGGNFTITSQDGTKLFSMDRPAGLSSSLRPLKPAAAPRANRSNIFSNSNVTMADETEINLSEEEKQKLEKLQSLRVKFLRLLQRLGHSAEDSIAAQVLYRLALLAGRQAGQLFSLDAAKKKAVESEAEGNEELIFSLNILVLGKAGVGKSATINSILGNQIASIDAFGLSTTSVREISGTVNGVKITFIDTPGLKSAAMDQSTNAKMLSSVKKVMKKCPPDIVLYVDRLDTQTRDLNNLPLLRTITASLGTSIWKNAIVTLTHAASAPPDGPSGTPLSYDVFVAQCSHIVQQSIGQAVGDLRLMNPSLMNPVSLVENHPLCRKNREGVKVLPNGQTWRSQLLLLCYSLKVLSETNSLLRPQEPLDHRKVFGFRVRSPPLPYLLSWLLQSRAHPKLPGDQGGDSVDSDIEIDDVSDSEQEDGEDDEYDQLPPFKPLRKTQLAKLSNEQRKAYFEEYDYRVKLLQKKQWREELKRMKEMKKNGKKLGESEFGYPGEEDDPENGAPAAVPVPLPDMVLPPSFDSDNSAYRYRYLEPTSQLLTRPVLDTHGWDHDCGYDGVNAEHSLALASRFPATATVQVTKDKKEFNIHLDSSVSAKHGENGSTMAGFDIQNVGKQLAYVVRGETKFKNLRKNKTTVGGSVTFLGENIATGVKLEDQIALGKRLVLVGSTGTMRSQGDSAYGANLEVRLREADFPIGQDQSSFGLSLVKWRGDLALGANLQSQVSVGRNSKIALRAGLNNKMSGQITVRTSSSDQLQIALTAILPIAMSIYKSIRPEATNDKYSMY

What was measured:
[1] = target: T1, SP1-YFP (Arabidopsis thaliana) (UniProt Q8L7N4); assay: co-IP; YFP fusions transiently expressed in Arabidopsis protoplasts (5 uM bortezomib for the last 4 hours) used as baits; total protein extracts incubated with GFP-Trap MA magnetic beads 1 hour at 4°C; four washes with 25 mM Tris-HCl pH 7.5, 150 mM NaCl, 10% glycerol, 1 mM EDTA, 0.5% Triton-X100; eluates immunoblotted for endogenous TOC, Tic110 and Stic1/Alb4 proteins
T1 sequence: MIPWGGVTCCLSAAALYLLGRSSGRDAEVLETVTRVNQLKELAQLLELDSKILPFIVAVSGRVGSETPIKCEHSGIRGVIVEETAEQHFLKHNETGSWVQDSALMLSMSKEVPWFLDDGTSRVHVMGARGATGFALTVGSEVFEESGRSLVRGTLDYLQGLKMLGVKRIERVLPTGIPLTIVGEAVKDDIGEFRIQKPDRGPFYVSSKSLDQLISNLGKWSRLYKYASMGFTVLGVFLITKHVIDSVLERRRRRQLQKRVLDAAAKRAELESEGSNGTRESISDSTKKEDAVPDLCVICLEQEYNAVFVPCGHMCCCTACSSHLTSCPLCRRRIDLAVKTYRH

[2] = target: T2, SPL2-YFP (Arabidopsis thaliana) (UniProt Q9SYH3); assay: as above
T2 sequence: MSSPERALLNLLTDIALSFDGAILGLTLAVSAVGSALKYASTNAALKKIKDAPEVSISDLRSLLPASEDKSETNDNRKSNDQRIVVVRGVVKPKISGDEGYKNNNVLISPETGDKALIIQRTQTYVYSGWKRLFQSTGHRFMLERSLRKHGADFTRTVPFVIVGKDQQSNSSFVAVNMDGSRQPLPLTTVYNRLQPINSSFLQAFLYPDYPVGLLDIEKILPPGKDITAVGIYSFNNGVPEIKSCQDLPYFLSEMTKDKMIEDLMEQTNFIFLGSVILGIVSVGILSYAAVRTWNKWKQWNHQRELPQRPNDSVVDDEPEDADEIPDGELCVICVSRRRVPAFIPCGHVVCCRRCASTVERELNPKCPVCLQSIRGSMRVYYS

[3] = target: T3, SP1-Myc (Arabidopsis thaliana) (UniProt Q8L7N4); assay: co-IP; coIP of SPL1 with SP1 in vivo (Figure S4A; legend not shown)
T3 sequence: T1 sequence

binding [1]: binds | binding [2]: binds
Molecule: Toc159 (from UniProt O81283 1-1503)

binding [1]: no binding | binding [2]: no binding
B1: Stic1/Alb4 (protein, UniProt Q9FYL3 46-499)
chain: AQLGFRPDSFDFIKDHAENLLYTIADAAVSSSETFESVAGTTTKTTQSNDWFSGIANYMETILKVLKDGLSTVHVPYSYGFAIILLTVLVKAATFPLTKKQVESAMAMKSLTPQIKAIQERYAGDQEKIQLETARLYKLAGINPLAGCLPTLATIPVWIGLYRALSNVADEGLLTEGFFWIPSLAGPTTVAARQNGSGISWLFPFIEGHPPLGWPDTLAYLVLPLLLVFSQYLSIQIMQSSQSNDPAMKSSQAVTKLLPLMIGYFALSVPSGLSLYWLTNNILSTAQQVWLQKYGGAKNPVEKFTNLVTKEDKTQQIEKSFSEPLVQKSVSELKIPREKGGEKVTPECPKPGERFRLLKEQEAKRRREKEERQKAEAALSNQNTDKAHEQDEKSDTAIVAEDDKKTELSAVDETSDGTVAVNGKPSIQKDETTNGTFGIGHDTEQQHSHETEKR

binding [3]: binds
B2: SPL1-HA (protein, UniProt Q94HV7 1-338)
chain: MIHLAGFTCCLGGVALYLLTRSTGRDIKSITRVYQLKDLEQLVEVESKVVPLIIAVSGDVGSETPIKCEHSYVLGVFLKRTAEQQVLRRNWRFSWVRNSTLMQPMTKEVPWYLDDGTGRVNVDVSQGELGLALTVGSDVFEKAEPVSLVQGALGYLKGFKILGVRHVERVVPIGTPLTVVGEAVRDGMGNVRIQKPEQGPFYVTYIPLDQLISKLGDLSRRFKYASMGLTVLGVILISKPVIEYILKRIEDTLERRRRQFALKRVVDAAARRAKPVTGGGTSRDGDTPDLCVVCLDQKYNTAFVECGHMCCCTPCSLQLRTCPLCRERIQQVLKIYRH

binding [1]: binds | binding [2]: binds
B3: Toc75 (protein, UniProt Q9STE8 141-818)
chain: DEEQSPDWDSHGLPANIVVQLNKLSGFKKYKVSDIMFFDRRRQTTIGTEDSFFEMVSIRPGGVYTKAQLQKELETLATCGMFEKVDLEGKTKPDGTLGVTISFAESTWQSADRFRCINVGLMVQSKPIEMDSDMTDKEKLEYYRSLEKDYKRRIDRARPCLLPAPVYGEVMQMLRDQGKVSARLLQRIRDRVQKWYHDEGYACAQVVNFGNLNTKEVVCEVVEGDITQLVIQFQDKLGNVVEGNTQVPVVRRELPKQLRQGYVFNIEAGKKALSNINSLGLFSNIEVNPRPDEKNEGGIIVEIKLKELEQKSAEVSTEWSIVPGRGGAPTLASFQPGGSVTFEHRNLQGLNRSLMGSVTTSNFLNPQDDLSFKLEYVHPYLDGVYNPRNRTFKTSCFNSRKLSPVFTGGPGVEEVPPIWVDRAGVKANITENFTRQSKFTYGLVMEEITTRDESSHIAANGQRLLPSGGISADGPPTTLSGTGVDRMAFLQANITRDNTKFVNGAVVGQRTVFQVDQGLGIGSKFPFFNRHQLTMTKFIQLREVEQGAGKSPPPVLVLHGHYGGCVGDLPSYDAFVLGGPYSVRGYNMGELGAARNIAEVGAEIRIPVKNTHVYAFVEHGNDLGSSKDVKGNPTAVYRRTGQGSSYGAGVKLGLVRAEYAVDHNNGTGALFFRFGERY

binding [1]: binds | binding [2]: binds
B4: Toc33 (protein, UniProt O23680 1-297)
chain: MGSLVREWVGFQQFPAATQEKLIEFFGKLKQKDMNSMTVLVLGKGGVGKSSTVNSLIGEQVVRVSPFQAEGLRPVMVSRTMGGFTINIIDTPGLVEAGYVNHQALELIKGFLVNRTIDVLLYVDRLDVYRVDELDKQVVIAITQTFGKEIWCKTLLVLTHAQFSPPDELSYETFSSKRSDSLLKTIRAGSKMRKQEFEDSAIAVVYAENSGRCSKNDKDEKALPNGEAWIPNLVKAITDVATNQRKAIHVDKKMVDGSYSDDKGKKLIPLIIGAQYLIVKMIQGAIRNDIKTSGKPL

binding [1]: no binding | binding [2]: no binding
B5: Tic110 (protein, UniProt Q8LPR9 52-1016)
chain: SAASSDQLSVSTQAKNPGIHGNKKELTGLQPIVEKMTPPVRLATSAVVLAASLATGYGLGLRLAGSRNIAFGGAAVAGAAGGAVVYALNSAVPEVAAISLHNYVAEFEDPASVTKDDVEKIADRYGVNKGDEAFQAEICDIYCRYVTSVLPTEGQSLKGDEVAKIVKFKNALGIDEPDAAAMHMEIGRRIFRQRLETGEREGDAEQRRAFMRLVYVSALVFGDASSFLLPWKRVLKVTDAQVEIAIRENAKQLYAERLKLVGRDINVENLVDLRKSQLSFKLSDELAEDLFREHTRKVVVENISSALSILKSRTRAAKSLASVVEELEKVLEFNNLLVSLKSHSEADQFARGVGPISLIGDESDFERRMDDLKLLYRAYVTDALSGGRLEENKLVAMSQLRNILGLGKREAEAISVDVTSKSYRKRLANAVSSGDLEAQDSKAKYLQKLCEELHFDAQKAGAIHEEIYRQKLQQCVTDGELSDDNVAALLRLRVMLCIPQQTVDTAHAEICGTIFEKVVRDAISSGVDGYDAETRKSVRKAAHGLRLSRETAMSIASKAVRRVFTNYIRRARAAENRTDSAKELKKMIAFNTLVVTEMVADIKGESSDKAPEEDPVQEKEEDDEDEEWGSLESLRKTRPDKELAEKMGKPGQTEITLKDDLPDRDRIDLYKTYLLYCVTGEVTRIPFGAQITTKRDDSEYLLLNQLGGILGLSSKEIVNIHVGLAEQAFRQQAEVILADGQLTKARVEQLDELQKQVGLPQPQAEKVIKNITTTKMANAIETAVNQGRLNIKQIRELKEANVSLDSMIAVSLREKLFKKTVSDIFSSGTGEFDETEVYQTIPSDLSIDVEKAKRVVHDLAQSRLSNSLVQAVALLRQRNSKGVVLSLNDLLACDKAVPAEPMSWEVSEELSDLYAIYSKSDPKPAPEKVLRLQYLLGIDDSTATALREMEDGALSSAAEEGNFVF
